Measured values taken from PubChem BioAssay AID1745845 (National Center for Advancing Translational Sciences (NCATS), 2022).
Screen size: about 360,000 compounds; about 2,600 (0.72%) were called active. Inconclusive results, whose numbers are uncertain, are shown with a selection of clear calls. Calls come from the whole dose curve; as a rule, active = well fitted inhibition curve with a large enough effect; inconclusive = small, poorly fitted or top-dose-only effect; inactive = no such curve, though single readings can be large or run the other way. A potency beside an inconclusive call is a rough fit, not a confirmed value.

Assay: Primary qHTS for Inhibitors of ATXN expression; note: nearly all actives have a fitted effect of over 55% in size
Conditions: HEK-293 ATXN2-luciferase reporter, luminescence, 24 h; activity change, negative = inhibition: at 57 µM (top of the series)
Procedure, shortened: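 ATXN2-luciferase reporter cells (luciferase flanked by upstream and downstream ATXN2 gene portions) were treated 24 h at 37 °C with compounds at up to 57 uM. SteadyGlo luminescence gave expression; GF-AFC fluorescence gave viability.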
% is set by controls: 0 for no effect and ±100 for the full control effect; potency is the fitted concentration of half-maximal effect; tags give direction and shape of the fitted curve.

Potency, inconclusive:
CC(C)(C)c1ccc(-c2n[nH]c(=S)n2C2CCCC2)cc1 15.8 µM [inhibitor, partial curve]
O=C(Nc1ccc(Cl)cc1)Nc1nc(-c2sccc2Br)cs1 39.8 µM [inhibitor, single point]
CCc1ccccc1S(=O)(=O)Cc1ccc(C(=O)NCCc2ccc(C)cc2)o1 25.1 µM [inhibitor, partial curve, poor fit]
CCOC(=O)c1ccc(NC(=S)N(CCCN2CCN(CC)CC2)Cc2cccs2)cc1 17.8 µM [inhibitor, partial curve, poor fit]
CCc1ccc(-n2cc(-c3ccc(F)cc3)[n+]3c2SCCC3)cc1 14.1 µM [inhibitor, partial curve, poor fit]
O=C(Nc1cccc(-c2cccc(Cl)c2)c1)C1CCN(Cc2ccon2)CC1 25.1 µM [inhibitor, single point]
Cc1cc(C(=O)N2CCN(c3cccc(Cl)c3)CC2)c2c(C)nn(-c3ccccc3Cl)c2n1 22.4 µM [inhibitor, single point]
CSc1nc(=O)n(CCC#N)nc1SC 39.8 µM [inhibitor, single point]
COC(=O)[C@@]12CCCCN1[C@H](c1ccc(-c3cccc(Cl)c3)cc1)[C@@H]1C(=O)N(C)C(=O)[C@@H]12 39.8 µM [inhibitor, single point]
N=c1c2c(-c3ccccc3)c(-c3ccccc3)n(Cc3ccco3)c2ncn1CCN1CCOCC1 39.8 µM [inhibitor, single point]
CCN(CC)CCCNC(=O)c1cc(-c2ccc(Cl)c(Cl)c2)on1 31.6 µM [inhibitor, single point]
COc1ccc2c(c1)c(=O)oc1c(C)c(OCc3cc(C(=O)O)oc3C)ccc12 25.1 µM [inhibitor, partial curve]
N=C1SC(c2ccccc2)C(=O)N1c1ncc(Cc2ccccc2)s1 (stereo not drawn) 35.5 µM [inhibitor, single point]
Cc1c2cc(O)c(=O)cc-2oc2cc(O)c(O)cc12 22.4 µM [inhibitor, single point]
CN1CCN(S(=O)(=O)c2ccc(Sc3nnnn3-c3ccccc3)c([N+](=O)[O-])c2)CC1 39.8 µM [inhibitor, single point]
COc1ccc(-c2sc3ccccc3c2C#Cc2cncn2C)cc1 31.6 µM [inhibitor, single point]
CCOc1ncccc1C(=O)N1CCN(c2cccc(C)c2C)CC1 0.168 µM [inhibitor, partial curve, poor fit]
COc1ccc(S(=O)(=O)c2c(C(=O)c3ccc(C)c(C)c3)cnc3ccc(C)cc23)cc1 15.8 µM [inhibitor, partial curve, poor fit]
CCN(CC(O)CON=C1c2ccccc2-c2ccccc21)S(=O)(=O)c1ccc(Cl)cc1 (stereo not drawn) 20 µM [inhibitor, partial curve]
CCC[C@@H](CN[C@@H](CNC)C(C)C)NCCCCc1ccccc1 22.4 µM [inhibitor, partial curve]
N#CC1=C(N)C(C#N)(C#N)[C@H](c2c(F)cccc2F)[C@H]2CC3(CC=C12)OCCO3 39.8 µM [inhibitor, single point]
CCOc1cc(S(=O)(=O)NCCc2c(C)[nH]c3ccc(C)cc23)ccc1F 35.5 µM [inhibitor, single point]
C=CC[n+]1c(-c2ccc(Cl)cc2Cl)csc1Nc1ccc(NC(C)=O)cc1 12.6 µM [inhibitor, partial curve, poor fit]
Cc1ccc(NC(=O)COc2ccccc2C#N)cc1S(=O)(=O)N1CCCCCC1 39.8 µM [inhibitor, partial curve, poor fit]
COc1ccc(C2=Nn3c(nnc3-c3ccccc3Cl)SC2)cc1OCC1CC1 31.6 µM [inhibitor, single point]
O=S(=O)(NCCSc1ccc(Cl)cc1)c1ccc(F)cc1 39.8 µM [inhibitor, single point]
FC(F)(F)c1cccc(-c2cc3nc(NC4CCCCC4)ccn3n2)c1 39.8 µM [inhibitor, single point]
COc1ccc(-c2nc(CN3CCC(C(=O)NCc4ccc(C)cc4)CC3)c(C)o2)cc1OC 28.2 µM [inhibitor, partial curve, poor fit]
CCOc1ccc(C(=O)N(Cc2nc(-c3cccc(C)c3)no2)C(C)C)cc1 39.8 µM [inhibitor, single point]
CN1CCc2c(sc(NC(=O)c3ccc(S(=O)(=O)N4CCCCCC4)cc3)c2C(N)=O)C1 39.8 µM [inhibitor, single point]
Cn1sc(=O)c2cc(S(=O)(=O)NC3CC3)ccc21 11.2 µM [inhibitor, single point]
COc1ccc(OC2CCN(S(=O)(=O)c3ccccc3)CC2)cc1 39.8 µM [inhibitor, partial curve, poor fit]
Cc1ccc([C@H]2C[C@H](n3cc(C4CC4)nn3)[C@@H](O)CN2CC2CCCCC2)cc1 25.1 µM [inhibitor, single point]
CC(N)c1csc(NC(=O)Nc2cccc(C(F)(F)F)c2)n1 (stereo not drawn) 25.1 µM [inhibitor, single point]
CCc1nc2ccccc2n1CCCCOc1cccc(C)c1 22.4 µM [inhibitor, single point]
Cc1nn(-c2ccccc2)nc1C(=O)c1c(C)[nH]n(-c2ccccc2)c1=O 25.1 µM [inhibitor, partial curve, poor fit]
CC(C)C[C@H]1CN([C@@H](CC(C)C)CN2CCC[C@@H]2CN2C(=S)NC[C@@H]2Cc2ccc(O)cc2)C(=S)N1CCc1ccccc1 28.2 µM [inhibitor, single point]
COc1ccccc1NC(=O)Nc1nc(C(N)Cc2ccc(Cl)cc2)cs1 (stereo not drawn) 31.6 µM [inhibitor, single point]
O=C(Nc1ccc(C(F)(F)F)cc1)c1cc(S(=O)(=O)N2CCCc3ccccc32)ccc1F 15.8 µM [inhibitor, single point]

Potency, active:
Cc1[nH]n(-c2cccc3ccccc23)c(=O)c1/C=N/NC(=O)c1cccc([N+](=O)[O-])c1 20 µM
Cn1nnnc1Sc1ncnc2scc(-c3cccc4c3sc3ccccc34)c12 15.8 µM
O=C(C[C@@H]1C/C=C/CC[C@H](Cc2ccc(F)cc2)C(=O)OC[C@@H](Cc2ccccc2)NC1=O)N[C@H](CO)Cc1ccccc1 11.2 µM
C/C(=N\Nc1nc(C)c(C)s1)c1ccc([N+](=O)[O-])cc1 29.9 µM
O=C(NCc1cccnc1)/C(=C/c1ccc(-c2ccc(Cl)cc2)o1)S(=O)(=O)c1ccccc1 12.6 µM

Potency, inactive:
COc1ccc(CNC(=O)C2=CC(c3ccc(OC)c(OC)c3)=NS(=O)(=O)N2C)cc1

Activity change, negative = inhibition, inactive:
CCN(CC)CCN(Cc1cc2cccc(C)c2[nH]c1=O)C(=S)Nc1ccccc1 4.19%
COC(=O)c1c(NC(=O)CS(=O)(=O)c2ccccc2)sc(C)c1C 0.0009%
COc1cc2nc(SCC(=O)Nc3ccccc3C)n3nc(CCn4c(C)nc5ccccc54)nc3c2cc1OC -4.27%
O=C(NC1CCCCC1)C(CCc1ccccc1)N1CCOCC1 (stereo not drawn) -15.3%
COc1cccc2sc3ccc(C#Cc4ccc(N)cc4)cc3c(=O)c12 15.1%
COc1ccc(-n2nc(C(=O)NCC(=O)N3CCN(c4cccc(Cl)c4)CC3)c3ccccc3c2=O)c(OC)c1 -3.49%
COc1ccc2cc3cc(C(=O)NCCCN4CCC(C)CC4)oc3nc2c1 -11.6%
COc1ccc(NC(=O)C2Cc3c(-c4ccncc4)ccnc3O2)cc1OC (stereo not drawn) 4.04%
O=C(CCCCCNC(=O)c1ccccc1)N/N=C/c1ccc(O)cc1O -36.1%
CN(CC(=O)Nc1ccccc1Cl)C(=O)c1cc(=O)[nH]c2ccccc12 -8.74%
NC1=NCC2c3ccccc3Cc3ccccc3N12 (stereo not drawn) -13.8%
Cc1onc(-c2c(Cl)cccc2Cl)c1C(=O)Nc1ccc(N2CCOCC2)cc1 13.2%
CCc1ccc(S(=O)(=O)NCc2cccs2)cc1 -3.89%
O=C1CCCC2=C1C(c1[nH]ncc1Cl)N=C(Nc1nc3ccccc3o1)N2 (stereo not drawn) 37.6%
COc1ccc2c(c1)c(CC(=O)Nc1cc(C)cc(C)c1)c(C)n2C(=O)c1ccc(Cl)cc1 7.11%
Cc1ccc(-n2nnnc2SCC(=O)N2CCCCC2)cc1 19.5%
COc1ccc(C(C)(C)C)cc1S(=O)(=O)n1ccnc1C -1.31%
O=C(Cn1cnc2ccccc21)N1CCN(S(=O)(=O)c2ccccc2)CC1 -18.1%
CC(=O)CCc1ccccc1 2.64%
Nc1ccc2c(c1)C/C(=C/c1ccco1)C2=O 32.3%
Cc1ccc(Sc2ccc(N3CCCC(C(=O)Nc4ccc(F)cc4)C3)nn2)cc1 (stereo not drawn) -17.8%
CCCn1cnnc1CNC(=O)[C@H]1O[C@@H](n2cnc3c(N)ncnc32)[C@H](O)[C@@H]1O 4.45%
CC(Oc1cc2oc(=O)c3c(c2cc1Cl)CCC3)C(=O)NC1CC(C)(C)NC(C)(C)C1 (stereo not drawn) -11%
